# Reference: PubChem BioAssay AID485294 (National Center for Advancing Translational Sciences (NCATS), 2010)
# Several values for one entry are separate records, joined by “and”; a condition that tells them apart may be missing. Equal entries are not always repeated. Hit rate of the full screen: of about 370,000 compounds, about 150 (0.041%) were called active. Inconclusive means that the source gave no clear call. Such entries were picked first, then a sample of the others. Calls come from the whole dose curve; as a rule, active = well fitted inhibition curve with a large enough effect; inconclusive = small, poorly fitted or top-dose-only effect; inactive = flat fitted curve, though single readings scatter. Potencies beside an inconclusive call are fits to weak or partial responses and may not hold up.
# Target: Beta-lactamase (Escherichia coli (strain K12)) (UniProt P00811)
# Sequence of UniProt P00811 (P00811 whole entry, looked up): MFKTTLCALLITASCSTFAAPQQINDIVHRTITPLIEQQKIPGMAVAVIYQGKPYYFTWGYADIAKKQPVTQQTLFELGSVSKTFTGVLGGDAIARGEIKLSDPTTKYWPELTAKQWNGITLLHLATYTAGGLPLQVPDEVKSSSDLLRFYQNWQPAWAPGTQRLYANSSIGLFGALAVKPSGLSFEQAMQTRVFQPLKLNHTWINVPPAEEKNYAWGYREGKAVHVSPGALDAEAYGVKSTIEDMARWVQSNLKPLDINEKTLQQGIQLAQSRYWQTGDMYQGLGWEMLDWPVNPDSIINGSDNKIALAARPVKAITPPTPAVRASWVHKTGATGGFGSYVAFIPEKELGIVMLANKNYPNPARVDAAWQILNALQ
# Test: qHTS Inhibitors of AmpC Beta-Lactamase (assay with detergent); note: nearly all actives have a fitted effect of over 25% in size
# Conditions: AmpC hydrolysis of nitrocefin, absorbance 480 nm, 0.01% Triton; series mostly up to 114 µM
# Procedure, shortened: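 AmpC (5.3 nM in the dispensed reagent) in 20 mM phosphate pH 7.0 with 0.01% (detergent screen) or 0.0001% Triton X-100 was preincubated with compounds for 15 min at room temperature. Nitrocefin was then added from an 800 uM solution, and hydrolysis was followed at 480 nm.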
# Potency is the fitted concentration of half-maximal effect; tags give direction and shape of the fitted curve.
row,Compound,Potency
1,C=Cc1ccc(Cn2c(SCC(=O)N3CCN(c4ccc(F)cc4)CC3)nc3ccccc32)cc1,inactive
2,CCOc1ccc(C2c3c(oc4ccccc4c3=O)C(=O)N2c2ccc(C)cn2)cc1OC (stereo not drawn),"inconclusive: 4.47 µM [inhibitor, full curve, poor fit]"
3,CCC1(c2ccc(F)cc2)NC(=O)N(CC(=O)c2ccc[nH]2)C1=O (stereo not drawn),"inconclusive: 28.2 µM [inhibitor, full curve]"
4,Cc1cccc(NC(=S)Nc2ccc(Oc3ccccc3)cc2)n1,"inconclusive: 100 µM [inhibitor, single point]"
5,Cc1cc(=O)oc2c(CN(C)Cc3ccccc3)c(O)ccc12,inactive
6,CN1CC(=O)N(CC(=O)Nc2ccc(OC(F)(F)F)cc2)c2ccccc2C1=O,inactive
7,COc1ccc(NC(=O)CN2CCN(c3ccc(F)cc3)CC2)cc1Cl,"inconclusive: 39.8 µM [inhibitor, full curve, poor fit]"
8,CC(NC(=O)c1ccco1)C12CC3CC(CC(C3)C1)C2 (stereo not drawn),"inconclusive: 2 µM [inhibitor, full curve]"
9,Clc1ccc(-c2nnc3sc(-c4ccco4)nn23)c(Cl)c1,"inconclusive: 0.631 µM [inhibitor, full curve, poor fit]"
10,CCn1c(CN2CCN(c3ccc(OC)cc3)CC2)nc2cc(S(=O)(=O)N(C)C)ccc21,inactive
11,COc1ccc(/C=N/N2CCOCC2)cc1COc1ccc(Cl)cc1,"inconclusive: 4.47 µM [inhibitor, full curve, poor fit]"
12,CN1C(=O)CSC1=Nc1cccc(Cl)c1,"inconclusive: 25.1 µM [inhibitor, full curve, poor fit]"
13,COc1ccccc1NC(=O)C(=O)NCC(c1cccnc1)N1CCc2ccccc2C1 (stereo not drawn),inactive
14,O=S(=O)(c1ccc2c(c1)OCCO2)C1CCC(O)CC1 (stereo not drawn),"inconclusive: 1.58 µM [inhibitor, full curve, poor fit] and inconclusive: 631 nM [inhibitor, full curve, poor fit]"
15,O=C(CSc1nc2ccccc2c(=O)n1CCCN1CCOCC1)Nc1ccc2c(c1)OCO2,"inconclusive: 100 µM [inhibitor, single point]"
16,Oc1c(C(c2cccs2)N2CCOCC2)sc2ncnn12 (stereo not drawn),"inconclusive: 17.8 µM [inhibitor, full curve, poor fit]"
17,COCCOc1cc(NC(=O)c2cccc(OC)c2)c(Cl)cc1Cl,"inconclusive: 0.631 µM [inhibitor, full curve, poor fit]"
18,CC(C(=O)Nc1ccc2c(c1)OCCO2)N(C)CC(=O)Nc1ccccc1Br (stereo not drawn),inactive
